Assay results from the supplement of paper PMC4166925.
± gives the standard deviation of the averaged measurements. In all, about 33,000 sequences were measured (“E-score (dimensionless, -0.5 to 0.5)”: median about -0.046, highest 2% from about 0.36 on). The list shows a part of the results.

Test system: T1, SpTbr T-box DNA-binding domain (GST fusion)
T1 sequence: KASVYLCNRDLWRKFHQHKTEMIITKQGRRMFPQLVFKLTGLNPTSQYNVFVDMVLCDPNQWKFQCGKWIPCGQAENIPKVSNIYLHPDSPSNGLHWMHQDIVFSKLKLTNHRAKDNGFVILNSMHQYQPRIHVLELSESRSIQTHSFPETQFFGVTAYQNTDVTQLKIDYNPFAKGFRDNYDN
Experiment: PBM E-score of 8-mer (E-score (dimensionless, -0.5 to 0.5)); Tbr is Tbrain of the sea star Patiria miniata (Pm) or the sea urchin Strongylocentrotus purpuratus (Sp); higher = stronger binding preference; most listed sequences are background and not binding sites
Conditions: the construct has about 5 more residues each side
Method in brief: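 Using the Universal PBM Analysis Suite, every ungapped 8-mer received an enrichment E-score averaged over duplicate arrays. Probe intensities came from double-stranded Universal Agilent oligonucleotide arrays incubated with 200 nM GST-fused Tbr T-box DNA-binding domain in PBS (pH 7.5). That protein was expressed in BL21 E. coli at 20 °C and purified by glutathione affinity chromatography.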

Row | Sequence | PBM E-score of 8-mer
1 | CCTAAAAC | 0.0389 ± 0.026
2 | TACTCATA | -0.0019 ± 0.00044
3 | AACGAAAC | 0.042 ± 0.0061
4 | GGCGTCAC | 0.373 ± 0.024
5 | GGGCCCTA | -0.328 ± 0.021
6 | AAACTTTG | -0.0173 ± 0.04
7 | AACATCTC | 0.17 ± 0.0085
8 | GCTCCAAC | 0.0384 ± 0.031
9 | GTAACCTA | -0.123 ± 0.064
10 | ACGATCAG | -0.129 ± 0.071
11 | CTGAGCCA | -0.0691 ± 0.043
12 | TGAAAGCA | 0.111 ± 0.022
13 | CAACCAGA | -0.0623 ± 0.07
14 | AGCCTTGG | -0.153 ± 0.048
15 | CCCAGAAG | 0.00203 ± 0.0082
16 | AGAATACT | -0.257 ± 0.094
17 | AACTAGTA | -0.163 ± 0.016
18 | AAGTGTCC | 0.2466 ± 0.0019
19 | CAACTAAA | 0.0545 ± 0.0022
20 | AACGAGTT | 0.0148 ± 0.089
21 | CCCATTGA | -0.0576 ± 0.015
22 | GCCATCAC | 0.198 ± 0.043
23 | GCACTCTA | -0.026 ± 0.058
24 | ATGTATGA | -0.1421 ± 0.00039
25 | CGAGGCTA | -0.0781 ± 0.0044

Row | Sequence | PBM E-score of 8-mer
26 | CAAGTAAC | 0.113 ± 0.019
27 | GCAAACAA | 0.046 ± 0.041
28 | AGTCAAAC | -0.0576 ± 0.022
29 | CTCGTTAA | 0.123 ± 0.012
30 | AATTCGGA | -0.273 ± 0.004
31 | CAACGTTG | 0.217 ± 0.051
32 | GGCGTCCA | -0.0614 ± 0.0052
33 | ATCTTTGC | 0.06 ± 0.029
34 | ACGTTTAA | -0.185 ± 0.007
35 | ACATAGGG | -0.161 ± 0.012
36 | GCTTTACA | 0.0266 ± 0.031
37 | CGGATCAG | -0.0346 ± 0.017
38 | GATAAACA | 0.0173 ± 0.097
39 | ACGGGTAT | 0.000385 ± 0.022
40 | CAACATCG | 0.0455 ± 0.0082
41 | GGCAACTA | 0.0212 ± 0.011
42 | ACCACTAG | 0.0638 ± 0.071
43 | ACCGTCAT | 0.0989 ± 0.0085
44 | CGGCCCAG | -0.2798 ± 0.0014
45 | CCTCGACG | 0.0784 ± 0.066
46 | CAGGGGTA | -0.191 ± 0.06
47 | CGCTAGCG | 0.107 ± 0.049
48 | AACCTTGT | -0.131 ± 0.051
49 | TCTTCCCA | 0.169 ± 0.0028
50 | AAGATGCT | -0.285 ± 0.019

Row | Sequence | PBM E-score of 8-mer
51 | GCGACAGC | 0.262 ± 0.042
52 | AAGAATGA | -0.122 ± 0.0021
53 | CCCGTCCG | -0.112 ± 0.003
54 | CCAATCCA | 0.0308 ± 0.037
55 | ACTCCAGC | -0.242 ± 0.054
56 | GACTCCCC | -0.247 ± 0.048
57 | GCGGCGTA | -0.126 ± 0.094
58 | AACCCCAC | -0.0189 ± 0.1
59 | CAAGCACG | -0.0364 ± 0.021
60 | AACCCCAT | 0.0327 ± 0.046
61 | ACATGGCA | -0.0601 ± 0.028
62 | ACATTGTG | 0.107 ± 0.067
63 | ACGCGAAG | 0.185 ± 0.027
64 | AAACACGG | -0.0457 ± 0.027
65 | AGAGGGGG | -0.179 ± 0.0039
66 | AAACTACC | -0.224 ± 0.082
67 | ATTAATTA | -0.22 ± 0.019
68 | AGGAGTGA | 0.212 ± 0.003
69 | ACGTGGCC | -0.105 ± 0.026
70 | CGTTTCGA | 0.00159 ± 0.013
71 | CAACCCGA | 0.199 ± 0.012
72 | GTAGGAAA | -0.0734 ± 0.057
73 | GCTCCGTA | -0.0737 ± 0.0022
74 | ATATATAC | -0.13 ± 0.0098
75 | CATTCAAA | -0.166 ± 0.02

Row | Sequence | PBM E-score of 8-mer
76 | AGCTCCCG | -0.0988 ± 0.01
77 | ATGCAACA | 0.0173 ± 0.0024
78 | CACAGTCG | 0.225 ± 0.0023
79 | AACCAGGG | -0.178 ± 0.02
80 | TATATCCA | -0.134 ± 0.0081
81 | AAAGCTGG | 0.0738 ± 0.048
82 | GTGTCAAC | 0.4761 ± 0.0027
83 | AGAATTTG | -0.0957 ± 0.061
84 | AACCCAGC | -0.15 ± 0.025
85 | GCCTATAA | -0.0749 ± 0.039
86 | GCGGACAC | 0.266 ± 0.028
87 | GCCTCAGA | -0.159 ± 0.0072
88 | CAACCCCG | 0.0744 ± 0.027
89 | CGAACTCC | 0.00536 ± 0.032
90 | AATTGTCT | -0.273 ± 0.005
91 | TACCGATA | -0.15 ± 0.041
92 | AGGGTTGG | -0.194 ± 0.0075
93 | CAATTTTA | -0.116 ± 0.058
94 | CTTCGCAC | 0.461 ± 0.015
95 | TGGAACAA | -0.205 ± 0.0048
96 | AATGCGCA | -0.0544 ± 0.062
97 | AGTTACGG | -0.232 ± 0.0032
98 | GTCTCATA | -0.0571 ± 0.0098
99 | GTGCGTAA | 0.152 ± 0.011
100 | ACAAGAGC | 0.061 ± 0.026

Row | Sequence | PBM E-score of 8-mer
101 | CAGACAGC | -0.00462 ± 0.1
102 | ATGTATTG | -0.0608 ± 0.086
103 | AATTCCTG | -0.24 ± 0.065
104 | TCACCACA | 0.1938 ± 0.0015
105 | ATTACAAA | -0.181 ± 0.0085
106 | CAGGTATC | 0.0197 ± 0.087
107 | AACAATAC | -0.0152 ± 0.036
108 | CATTTTTC | -0.0118 ± 0.076
109 | AGACCCTA | -0.307 ± 0.055
110 | CAAGCCAC | 0.0467 ± 0.0027
111 | AAGTCTTC | -0.0365 ± 0.052
112 | AAATACGC | -0.0158 ± 0.019
113 | ATTCAGCG | -0.153 ± 0.038
114 | AAATCCGC | 0.0994 ± 0.0043
115 | CGGCACAA | -0.0814 ± 0.021
116 | ACAATTCG | 0.141 ± 0.029
117 | AGATGTTC | 0.0355 ± 0.018
118 | GACCCACA | -0.0594 ± 0.081
119 | ATACGAAA | -0.138 ± 0.078
120 | CCGCCCGA | 0.0486 ± 0.086
121 | AAATCGAG | 0.0633 ± 0.0084
122 | ACCAGGGG | -0.0602 ± 0.042
123 | ACTAATAC | 0.0389 ± 0.009
124 | CGGCCTTC | -0.0913 ± 0.022
125 | CCATGTAC | -0.0564 ± 0.012

Row | Sequence | PBM E-score of 8-mer
126 | GGTTTGTA | -0.247 ± 0.043
127 | CGCTGCAC | 0.171 ± 0.0084
128 | GCCGTAAC | -0.06 ± 0.051
129 | CTGTTAAA | 0.231 ± 0.041
130 | CAGCCGGA | 0.05 ± 0.018
131 | AATACTGC | -0.263 ± 0.019
132 | TCGAATCA | 0.0875 ± 0.038
133 | GCCCACAA | 0.0434 ± 0.036
134 | ACGGCACC | 0.173 ± 0.0075
135 | ACTCCTTA | 0.0135 ± 0.0089
136 | CATTCCTA | -0.321 ± 0.028
137 | AAGTATAA | -0.0883 ± 0.04
138 | AGCTCGAA | 0.058 ± 0.016
139 | CAATGGCG | 0.0595 ± 0.0016
140 | TCGAGGCA | -0.038 ± 0.044
141 | GTGCCGCA | 0.132 ± 0.044
142 | TCATTCCA | -0.178 ± 0.013
143 | GAAATGGC | 0.00243 ± 0.03
144 | AAAAGCGC | 0.237 ± 0.065
145 | CAGTTACC | -0.0815 ± 0.014
146 | GATAAATC | -0.101 ± 0.022
147 | ACGGGACT | -0.1061 ± 0.00023
148 | ATTGTCAA | 0.225 ± 0.019
149 | AACTAACC | 0.0447 ± 0.049
150 | ACCTAAGT | 0.0511 ± 0.0061

Row | Sequence | PBM E-score of 8-mer
151 | CGAGAGCC | 0.136 ± 0.053
152 | CAGCGGTA | -0.0664 ± 0.054
153 | CATAGAAG | -0.245 ± 0.024
154 | ACGCCGCA | 0.0908 ± 0.075
155 | TCCCTCCA | -0.12 ± 0.015
156 | AGCCTAGA | -0.192 ± 0.025
157 | CGTAGGGC | -0.243 ± 0.014
158 | AATTGACA | 0.296 ± 0.011
159 | CCCGTACA | -0.0732 ± 0.11
160 | ACGCTTCT | 0.124 ± 0.0055
161 | GATAGCTA | -0.0694 ± 0.089
162 | CGACTGAC | 0.0364 ± 0.013
163 | GTACCAGA | -0.149 ± 0.042
164 | CAAATATC | -0.126 ± 0.012
165 | ATCTCGTG | -0.0327 ± 0.046
166 | ATTCCCCC | -0.33 ± 0.043
167 | TGGTTTAA | -0.0979 ± 0.037
168 | ATACGCAG | 0.122 ± 0.033
169 | CACGCCCC | 0.24 ± 0.013
170 | ATCACTCC | 0.0406 ± 0.077
171 | GAGCTGGA | 0.026 ± 0.004
172 | GCCAACAC | 0.351 ± 0.0088
